Laboratory results: PubChem BioAssay AID2451 (National Center for Advancing Translational Sciences (NCATS), 2010)
Several values for one entry are separate records, joined by “and”; a condition that tells them apart may be missing. Equal entries are not always repeated. The campaign covered roughly 290,000 compounds. About 2,100 (0.72%) were called active. This list was built around the results that the source calls inconclusive (neither active nor inactive); the mix of calls is not that of the screen. Calls follow the shape of the dose curve; as a rule, active = well fitted inhibition curve with a large enough effect; inconclusive = small, poorly fitted or top-dose-only effect, or effect the other way; inactive = flat fitted curve, though single readings scatter. Potencies of inconclusive entries are doubtful fits and often do not repeat.

The compounds below were run against Fructose-bisphosphate aldolase (Giardia intestinalis (strain ATCC 50803 / WB clone C6)) (UniProt A8B2U2) (assay: qHTS Assay for Inhibitors of Fructose-1,6-bisphosphate Aldolase from Giardia Lamblia). Details: purified Giardia FBPA; series mostly up to 59.6 µM.
Chain of UniProt A8B2U2 (A8B2U2 whole entry, looked up): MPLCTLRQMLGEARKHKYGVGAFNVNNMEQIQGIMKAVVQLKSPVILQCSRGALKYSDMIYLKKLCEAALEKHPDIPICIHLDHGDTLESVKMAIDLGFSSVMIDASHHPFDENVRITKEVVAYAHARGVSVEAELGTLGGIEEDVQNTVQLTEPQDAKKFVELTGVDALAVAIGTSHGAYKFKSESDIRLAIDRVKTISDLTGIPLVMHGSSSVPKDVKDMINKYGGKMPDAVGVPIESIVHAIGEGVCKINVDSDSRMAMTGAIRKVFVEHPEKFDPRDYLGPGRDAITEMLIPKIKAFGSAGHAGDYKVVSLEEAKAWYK
Method in brief: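 Giardia FBPA (40 nM reagent) was preincubated 10 min at RT with compound (up to 57.5 uM final), then substrate plus GAPDH/TPI/NAD/arsenate coupling system with diaphorase/resazurin was added; resorufin fluorescence (525/598 nm) was read after 20 min.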
Also: nearly all actives have a fitted effect of over 55% in size.
Potency is read from the fitted curve at half-maximal effect; tags tell the direction and shape of the fitted curve.

SMILES	Potency
CC(=O)NC(c1ccccc1)c1cc([N+](=O)[O-])c2cccnc2c1O (stereo not given)	active: 19.9 µM
Cc1ccc(C)c(NC(=S)Nc2cccc3cnccc23)c1	inconclusive: 3.97 µM [inhibitor, partial curve]
COC(=O)c1ccc(NC(=O)c2cc[n+]([O-])cc2)cc1	inactive
CC1=C(C(=O)OC(C)C)C(c2cncc(-c3ccc(F)cc3)c2)C(C#N)=C(N)O1 (stereo not given)	inconclusive: 19.9 µM [inhibitor, single point]
CCN(CC)CCN(C(=O)c1ccc2ccccc2c1)c1nc2ccc(OC)cc2s1	inconclusive: 22.4 µM [inhibitor, partial curve]
OCc1ccccc1OCCCN1CCC(Cc2ccccc2)CC1	inconclusive: 17.8 µM [inhibitor, partial curve]
CN1CCc2c(sc3c2C(=O)NC(c2ccccn2)N3)C1 (stereo not given)	inconclusive: 12.6 µM [inhibitor, partial curve]
CCCCCn1c(NC(=O)c2ccco2)c(S(=O)(=O)c2ccc(C)cc2)c2nc3ccccc3nc21	inconclusive: 4.46 µM [inhibitor, partial curve, poor fit]
CC(C)(C)n1nc2c(c1NC(=O)COc1ccc3ccccc3c1)CS(=O)(=O)C2	inconclusive: 22.3 µM [inhibitor, partial curve]
O=C1CN(C(=O)/C=C/c2ccc(Cl)cc2)c2ccccc2N1	inactive
COc1cc(O)cc2c1C(=O)O[C@@H](C)CCCC(=O)CCCCC2	inactive
c1ccc(CC2CCN(Cc3nc(-c4ccccc4)no3)CC2)cc1	inactive
COCCn1c(=O)c(C)nc2cncnc21	inactive
COc1ccc(NC(=O)CC(C)NCCCN2CCCC2=O)cc1 (stereo not given)	inconclusive: 15.8 µM [inhibitor, partial curve]
O=C(COc1ccccc1)Nc1nn[nH]n1	inconclusive: 15.8 µM [inhibitor, partial curve]
Cc1c(NC(=O)CN2CCN(c3ccc(O)cc3)CC2)c(=O)n(-c2ccccc2)n1C	inconclusive: 19.9 µM [inhibitor, partial curve]
O=C1C(NS(=O)(=O)c2cccs2)=C(N2CCN(Cc3ccccc3)CC2)C(=O)c2ccccc21	inconclusive: 5.61 µM [inhibitor, partial curve]
CCOC(=O)c1c(NC(=O)C2C3CCC(O3)C2C(=O)O)sc(C)c1-c1ccc(F)cc1 (stereo not given)	inconclusive: 14.1 µM [activator, partial curve]
Nc1ccc(N)c(C(=O)O)c1	inconclusive: 14.1 µM [inhibitor, partial curve, poor fit]
Nc1ccc2nc(C(F)(F)F)[nH]c2c1	inconclusive: 22.3 µM [inhibitor, partial curve]
COc1cc2c(cc1OC)CN(Cc1cc(=O)n3c(-c4ccccc4)csc3n1)CC2	inconclusive: 15.8 µM [inhibitor, single point]
COCCCNCCCCOc1ccc(OCc2ccccc2)cc1	inconclusive: 17.7 µM [inhibitor, partial curve]
CCOc1ccc(NC(=O)c2cccnc2C(=O)O)cc1	inconclusive: 6.29 µM [inhibitor, partial curve]
Cn1c(=O)c2c([nH]c(=S)n2Cc2ccc(Cl)cc2)n(C)c1=O	active: 8.91 µM

SMILES	Potency
O=C(Oc1c(CN2CCOCC2)cc(Cl)c2cccnc12)c1ccc(F)cc1	inconclusive: 44.6 µM [inhibitor, single point]
CCOc1ccc(NC2=C(OC)C(=O)c3ccccc3C2=O)cc1	inconclusive: 7.06 µM [inhibitor, partial curve]
COc1ccc(CC(=O)NNC(=S)NC(=O)c2cccnc2)cc1	inconclusive: 2.51 µM [inhibitor, full curve, poor fit]
CCOC(=O)CN1NC2(CCCCC2)NC1=S	inconclusive: 17.7 µM [inhibitor, partial curve]
N/C(=N\OC(=O)c1cc([N+](=O)[O-])ccc1Cl)c1ccccn1	inactive
Cc1cccc(C2NC(=O)c3ccccc3O2)c1 (stereo not given)	inconclusive: 28.2 µM [activator, partial curve]
S=C(Nc1ccccc1)Nn1cnnc1	active: 12.6 µM
CCN1CC=C2C(C1)C(c1ccc(Cl)s1)C(C#N)=C(N)C2(C#N)C#N (stereo not given)	inconclusive: 5.61 µM [inhibitor, partial curve]
S=C(Nc1ccccc1Cl)N(Cc1ccccc1)Cc1cccnc1	inactive
COc1cc2c(cc1OC)C1O[C@](CCCCN3C(=O)c4ccccc4C3=O)(C2)OC2=C1C(=O)c1ccccc1C2=O	inconclusive: 0.0355 µM [inhibitor, full curve]
C=CCOc1c(Br)cc(C2C3=C(CCCC3=O)N(C)C3=C2C(=O)CCC3)cc1OCC	inconclusive: 35.4 µM [inhibitor, single point]
COc1cc(C(c2c(C)[nH][nH]c2=O)c2c(C)[nH][nH]c2=O)cc([N+](=O)[O-])c1O	active: 15.8 µM
COc1ccc(CCNc2oc(COc3ccccc3Cl)nc2C#N)cc1OC	inactive
O=S1(=O)CCC(NC(=S)NCCNC(=S)NC2CCS(=O)(=O)C2)C1 (stereo not given)	inconclusive: 19.9 µM [inhibitor, partial curve]
O=c1c(-c2cccs2)nc2cnc(N3CCNCC3)nc2n1CCc1ccccc1	inactive
CCc1cccc(CC)c1NC(=S)/C(=C(\[O-])c1ccc(Cl)s1)[n+]1ccccc1	inconclusive: 15.8 µM [inhibitor, partial curve]
COCCn1c(-c2cccs2)csc1=Nc1cccnc1	inconclusive: 28.1 µM [inhibitor, single point]
CCOc1ccc(-c2nnn(CC(=O)Nc3ccccc3OC)n2)cc1OCC	inconclusive: 7.06 µM [activator, single point]
COc1cc(C(=O)Nc2cccc3ncccc23)cc(OC)c1OC	inconclusive: 8.89 µM [activator, partial curve]
CCCc1nc2oc3c(NCC4CCCO4)ncnc3c2c2c1COC(C)(C)C2 (stereo not given)	inactive
CC(C)Cn1c(=O)c(C(=O)N/N=C/c2cccc(F)c2)c(O)c2ccccc21	inactive
O=C(Cn1sc2ccccc2c1=O)NC12CC3CC(CC(C3)C1)C2	inconclusive: 14.1 µM [inhibitor, partial curve]
O=C(NC(Cc1c[nH]c2ccccc12)C(=O)O)c1cccs1 (stereo not given)	inactive
Cc1ccccc1-n1nc(-c2ccc(N)cc2)cc1N	inconclusive: 17.7 µM [inhibitor, single point]

SMILES	Potency
O=C(O)c1ccc(/C=C(\c2nc3ccccc3[nH]2)c2nc3ccccc3s2)cc1	inconclusive: 15.8 µM [activator, partial curve]
Cc1ccc([N+](=O)[O-])cc1NC(=O)CN(C)CCOc1ccccc1	inconclusive: 28.2 µM [inhibitor, single point]
Nc1n[nH]c(-c2cccc([N+](=O)[O-])c2)n1	inactive
CCNCCC(CCC(C)C)c1ccc2c(c1)OCO2 (stereo not given)	inconclusive: 17.7 µM [inhibitor, partial curve]
Cc1nc(CCNC(=O)CC2C(=O)NCCN2Cc2ccccc2)sc1C (stereo not given)	inactive
COc1cc(NC(=O)c2cc3sccc3n2C)cc(OC)c1	inconclusive: 15.8 µM [inhibitor, single point]
CCCCC1=CC2=C(c3ccco3)C(=O)C(C)(OC(=O)c3ccc(OC)cc3)C(=O)C2=CN1C1CCCCC1 (stereo not given)	inconclusive: 6.29 µM [inhibitor, partial curve] and inconclusive: 2.51 µM [inhibitor, partial curve]
COc1ccc(OC)c(NC2=NC3(CCCC3)N=C(N)N2)c1	inactive
CCOC(=O)c1ccc(NC(=O)c2c(NC(=O)CCC(=O)O)sc3c2CCCCC3)cc1	inconclusive: 22.3 µM [inhibitor, single point]
O=c1cc(-c2ccc(O)cc2)oc2c(O)c(O)c(O)c(O)c12	active: 6.29 µM
O=C(COc1ccc(Cl)cc1Cl)NC(=S)N1CCCc2ccccc21	inactive
Cc1ccc(NC2=C(N3CCOCC3)C(=O)c3ccccc3C2=O)cc1	inconclusive: 1.58 µM [inhibitor, full curve]
COc1ccc(CCN(C)C/C=C/c2ccccc2[N+](=O)[O-])cc1OC	inconclusive: 22.4 µM [inhibitor, partial curve]
CC1CCN(CCn2c(=S)[nH]c3ccccc3c2=O)CC1	inconclusive: 35.5 µM [inhibitor, single point]
C=CCNC(=S)Nc1cccc2[nH]ncc12	inconclusive: 17.7 µM [inhibitor, partial curve]
CN1CCN(S(=O)(=O)c2ccc(NC(=O)c3csc4ccccc34)cc2)CC1	inactive
CC1CN(C(=O)CCC(=O)NCCc2ccccc2)c2ccccc2O1 (stereo not given)	inactive
O=C1NC(=S)S/C1=C1\Sc2ccccc2N1CCCS(=O)(=O)O	inconclusive: 3.16 µM [inhibitor, partial curve]
NNc1nnc(NN)c2ccccc12	inconclusive: 17.7 µM [inhibitor, single point]
CCCCCCN1CCN(c2ccccc2Cl)CC1	inconclusive: 17.7 µM [inhibitor, partial curve]
Cn1nccc1C(=O)N/N=C/c1c(O)ccc2ccccc12	inconclusive: 17.8 µM [inhibitor, partial curve, poor fit]
CCOC(=O)c1ccc(NC(=O)CCNS(=O)(=O)c2cccs2)cc1	inconclusive: 39.8 µM [activator, single point]
